Data: paper PMC3437627 (Bioorganic & medicinal chemistry letters, 2008)

Experiments:
[1] = system: nAChRs mediating nicotine-evoked [3H]DA release; details: cited from earlier work
[2] = system: nAChRs mediating nicotine-evoked [3H]DA release; type: cell-based, rat

CCCCCCCCCCCC[n+]1cccc(C2CCCN2C)c1.[I-] (stereo not drawn) [NDDNI, N-n-dodecylnicotinium iodide]
selectivity (DA overflow vs [3H]nicotine binding to the high affinity nAChR) ([1]; ref 16b): 15 fold

OCCCc1ccc[n+](CCCCCc2cc(CCCCC[n+]3cccc(CCCO)c3)c(CCCCC[n+]3cccc(CCCO)c3)cc2CCCCC[n+]2cccc(CCCO)c2)c1.[Br-].[Br-].[Br-].[Br-] [Compound 11j]
inhibition of S(−)-nicotine evoked [3H]DA overflow ([2]; rat striatal slices, nicotine 10 µM, Fig 2): concentration-dependent manner | IC50 ([2]; read-out: IC50, inhibition of nicotine-evoked [3H]DA release, full concentration response 1 nM to 10 µM, 10 µM nicotine): 3 nM

CCCCCCCC[n+]1cccc(C2CCCN2C)c1.[I-] (stereo not drawn) [NONI, N-n-octanylnicotinium iodide]
potency relative to NDDNI (fold less potent) ([1]; nicotine-evoked DA overflow, ref 16b): 70 fold

CNC1(C)C2CCC(C2)C1(C)C (stereo not drawn) [mecamylamine]
inhibition of S(−)-nicotine-evoked [3H]DA fractional release ([2]; rat striatal slices, 100 nM NMPi, MEC positive control, two-way ANOVA): Significant inhibition | inhibition of nicotine-evoked DA release [1]: completely inhibited
